# The whole screen tested about 310,000 compounds, of which about 14,000 (4.5%) showed an effect of 50% or more. The effect is printed as a negative number. Some of the results follow.
# Target: human ether-à-go-go-related gene (hERG) potassium channel (human, UniProt Q12809)
# Test: primary screen, population patch clamp on CHO cells stably expressing hERG
# 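Further: peak tail current of the secondary pulse compared with the same well before compound.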
# Sequence of human ether-à-go-go-related gene (hERG) potassium channel (Q12809 whole entry, looked up): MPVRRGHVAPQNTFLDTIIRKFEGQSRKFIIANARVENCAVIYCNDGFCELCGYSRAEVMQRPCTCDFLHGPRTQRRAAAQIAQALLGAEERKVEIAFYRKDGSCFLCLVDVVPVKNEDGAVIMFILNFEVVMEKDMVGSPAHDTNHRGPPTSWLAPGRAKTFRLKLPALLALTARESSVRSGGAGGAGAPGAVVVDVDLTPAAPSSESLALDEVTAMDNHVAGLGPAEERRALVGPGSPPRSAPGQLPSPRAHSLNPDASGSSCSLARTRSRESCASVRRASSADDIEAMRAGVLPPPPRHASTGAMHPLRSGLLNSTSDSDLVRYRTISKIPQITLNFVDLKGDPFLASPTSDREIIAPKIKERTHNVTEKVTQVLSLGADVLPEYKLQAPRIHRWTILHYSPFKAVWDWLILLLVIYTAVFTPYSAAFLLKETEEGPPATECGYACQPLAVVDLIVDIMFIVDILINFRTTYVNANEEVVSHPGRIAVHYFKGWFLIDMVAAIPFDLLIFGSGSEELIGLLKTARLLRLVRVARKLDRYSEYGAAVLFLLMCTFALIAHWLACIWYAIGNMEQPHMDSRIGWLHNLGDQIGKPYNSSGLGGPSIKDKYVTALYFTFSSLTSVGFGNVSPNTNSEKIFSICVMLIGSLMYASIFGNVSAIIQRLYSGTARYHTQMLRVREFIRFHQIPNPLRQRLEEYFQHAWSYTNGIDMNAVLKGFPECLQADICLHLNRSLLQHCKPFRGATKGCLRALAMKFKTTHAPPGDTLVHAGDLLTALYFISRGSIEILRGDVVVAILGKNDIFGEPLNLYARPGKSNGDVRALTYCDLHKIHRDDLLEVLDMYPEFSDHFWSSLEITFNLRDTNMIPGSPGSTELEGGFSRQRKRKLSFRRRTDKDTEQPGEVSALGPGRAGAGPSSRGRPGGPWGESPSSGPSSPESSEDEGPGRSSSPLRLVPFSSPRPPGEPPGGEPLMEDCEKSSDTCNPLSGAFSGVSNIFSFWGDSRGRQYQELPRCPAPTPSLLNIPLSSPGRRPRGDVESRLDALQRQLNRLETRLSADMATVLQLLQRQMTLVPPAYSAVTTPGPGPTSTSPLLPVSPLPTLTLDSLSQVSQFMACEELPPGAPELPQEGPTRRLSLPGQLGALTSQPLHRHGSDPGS
row,Compound,"hERG current change (%, negative = inhibition) at 10uM [%]"
1,C=CCNc1nc2ccccc2nc1NS(=O)(=O)c1ccc(Br)cc1,9.13
2,Cc1cc(C)cc(Nc2nc3c([nH]2)c(=O)n(C)c(=O)n3C)c1,0.688
3,COc1ccc(C(=O)Nc2cc(C)on2)cc1S(=O)(=O)N1CC(c2ccccc2)CC1=O (centres unmarked),16.8
4,CCOC(=O)c1ccc(NC(=O)CN2CCN(C(=O)C3CCCO3)CC2)cc1 (centres unmarked),9.54
5,CN(Cc1cccc(F)c1)C(=O)c1ccc(NS(=O)(=O)c2ccc3[nH]c(=O)[nH]c3c2)cc1,0.0845
6,Nc1scc[n+]1Cc1cccc2cccnc12.[Br-],-12.3
7,COc1ccc(N2CC(C(=O)Nc3nnc(SCc4cccnc4)s3)CC2=O)cc1 (centres unmarked),1.19
8,Cc1nn2c(-c3ccc(Cl)cc3Cl)nnc2s1,-7.54
9,CC/C(C)=N/Nc1nc2c(c(=O)[nH]c(=O)n2C)n1CCc1ccccc1,22.5
10,COCc1nnc(NC(=O)CCCOc2ccccc2OC)s1,9.6
11,Cc1ccccc1OCCSc1nc(N(C)C)nc(N(C)C)n1,30
12,C=CCn1c(O)c(/C=N/N2CCOCC2)c(=O)[nH]c1=S,3.15
13,COc1ccc(CNC(=O)CCCSc2ccccc2)cc1,10.2
14,O=C(O)c1ccc(N=Cc2c(O)n(Cc3ccc(F)cc3)c(=O)[nH]c2=O)cc1,2.5
15,COc1ccc(F)cc1C(=O)C1CCCN(Cc2cnc(N3CCCC3)s2)C1 (centres unmarked),-29.4
16,CC(OC(=O)c1ccc2c(=O)n3c(nc2c1)CCCCC3)C(=O)Nc1ncc(Cl)cc1Cl (centres unmarked),-6.83
17,Cc1ccc2c(c1)C1CN(C)CCC1N2C(=O)Cc1cccs1.Cl (centres unmarked),-46.9
18,CCS(=O)(=O)CCSC1OC(COC(C)=O)C(OC(C)=O)C(OC(C)=O)C1OC(C)=O (centres unmarked),11.7
19,N#Cc1c(N)n(-c2cccc(C(=O)O)c2)c2nc3ccccc3nc12,14.6

row,Compound,"hERG current change (%, negative = inhibition) at 10uM [%]"
1,Cc1ccc(C)c(NS(=O)(=O)c2cc(C(=O)NCC3CCCO3)ccc2C)c1 (centres unmarked),-47.7
2,O=C(O)c1ccc(/C=C(\c2nc3ccccc3[nH]2)c2nc3ccccc3s2)cc1,12.1
3,CCc1cc(C(=O)N2CCc3c([nH]c4ccccc34)C2c2ccc(OC)cc2F)no1 (centres unmarked),15.7
4,CCOC(=O)N1CCN(C(=O)CSc2ccc(-c3ccccc3)nn2)CC1,-12.8
5,O=C(C1=C[C@@H](c2ccc(Br)cc2)C[C@@H](OCc2ccc(CO)cc2)O1)N1CCN(Cc2ccc3c(c2)OCO3)CC1,-9.55
6,Cc1ccc(S(=O)(=O)N2CCC(NC(=O)C3CCCCC3)CC2)cc1,-3.19
7,CSCCC(NC(=O)c1ccccc1Br)C(=O)N1CCN(C(C)=O)CC1 (centres unmarked),8.22
8,CC(=O)c1ccc(NC(=O)C(C)N(C)CC(=O)Nc2ccc(Cl)cc2)cc1 (centres unmarked),-36
9,CC(Cc1cccs1)NC(=O)Nc1ccc([N+](=O)[O-])cc1 (centres unmarked),-19.5
10,CCn1c(COc2c(C)cccc2C)nnc1SCc1nc2ccccc2c(=O)[nH]1,-6.33
11,O=C(NNC(=S)Nc1cccc2ccccc12)c1cccc(Br)c1,19.1
12,Cn1nnnc1SCC(=O)N1CCN(c2ccc(Cl)cc2)CC1,-51.2
13,CCN(CC)CCNc1nc(-c2ccc(OC(F)F)cc2)c(C)s1,-77.8
14,CCOc1ccc2[nH]c(=O)c(CN(Cc3nnnn3Cc3ccccc3)CC3CCCO3)cc2c1 (centres unmarked),-34.8
15,Cc1cc(-c2c(C)[nH]n(-c3ccc(Cl)cc3)c2=O)n(-c2ccc(Cl)cc2)n1,-0.392
16,Cc1ccc(NC(=O)c2ccc3nc(N4CCOCC4)sc3c2)c(Cl)c1,6.14
17,CCc1ccc(CN2CCCC(C(=O)N3CCCCC3)C2)cc1.O=C(O)C(=O)O (centres unmarked),-42.7
18,CCC1SC2=NCN(c3ccccc3)CN2C1=O (centres unmarked),0.517
19,O=C(O)CCCC(=O)Nc1cccc([N+](=O)[O-])c1,30.2

row,Compound,"hERG current change (%, negative = inhibition) at 10uM [%]"
1,CCOCCCNCC(=O)Nc1ccc(S(=O)(=O)NC(C)CC)cc1.O=CO (centres unmarked),9.28
2,CCOC(=O)C1CCCN(C(=O)C(C)Oc2ccc(Cl)cc2Cl)C1 (centres unmarked),-9.02
3,COc1ccc(Cn2nnnc2CN2CCc3ccccc3C2)cc1.Cl,-15.3
4,Cc1cccc(C)c1-n1nnnc1SCSc1nnnn1-c1c(C)cccc1C,3.64
5,CCn1c(SCC(=O)N2CCc3ccccc3C2)nc2sc(C)c(C)c2c1=O,8.65
6,N#Cc1c2ccc(O)cc2n2ccccc12,25.7
7,Nn1c(SCC(=O)Nc2nc3ccccc3s2)nncc1=O,6.66
8,CC1C(C)C(O)(c2ccccc2)CCN1C (centres unmarked),9.94
9,COc1ccc(CCNC(=O)C(=O)NCC2OCCN2C(=O)c2ccc(Cl)cc2)cc1OC (centres unmarked),-10.9
10,Cc1ccccc1Oc1ncnc2sccc12,-14.7
11,COc1ccccc1NC(=O)Cn1nnc(-c2ccccc2NC(=O)c2cnccn2)n1,8.23
12,COCCC(=O)N1CCC(n2nccc2NC(=O)c2ccccc2C)CC1,12.6
13,Cc1c(Cc2ccccc2)c(NCCN(C)C)n2c(nc3ccccc32)c1C#N,-32.4
14,Cc1c(C(=O)NC(=S)NCC(C)C)oc2ccccc12,19.6
15,CCOc1ccc(C(=O)NCc2ccc3c(c2)OCO3)cc1,8.82
16,O=C(Nc1ccc2c(c1)OCCO2)c1cc(F)c(F)cc1Cl,6.91
17,Cc1ccccc1-c1nc(-c2ccc(NC(=O)c3cccs3)cc2)no1,15.6
18,CC(C)OC(=O)C1CC(C)(O)C(=O)C(C(=O)OC(C)C)C1c1ccc([N+](=O)[O-])cc1 (centres unmarked),3.15

# Source: article PMC4336329 (PLoS ONE, 2015)
